Measured values from patent US20240141039A1 (AGENUS, published 2024).

T1: full-length isoform 2 ECD of human CD96 with a C89S mutation (His-tagged) (human, UniProt P40200 22-519)
T1 construct: also called His-tagged isoform 2 of human CD96 with a C89S mutation; human CD96 extracellular domain isoform 2 C89S
T1 sequence: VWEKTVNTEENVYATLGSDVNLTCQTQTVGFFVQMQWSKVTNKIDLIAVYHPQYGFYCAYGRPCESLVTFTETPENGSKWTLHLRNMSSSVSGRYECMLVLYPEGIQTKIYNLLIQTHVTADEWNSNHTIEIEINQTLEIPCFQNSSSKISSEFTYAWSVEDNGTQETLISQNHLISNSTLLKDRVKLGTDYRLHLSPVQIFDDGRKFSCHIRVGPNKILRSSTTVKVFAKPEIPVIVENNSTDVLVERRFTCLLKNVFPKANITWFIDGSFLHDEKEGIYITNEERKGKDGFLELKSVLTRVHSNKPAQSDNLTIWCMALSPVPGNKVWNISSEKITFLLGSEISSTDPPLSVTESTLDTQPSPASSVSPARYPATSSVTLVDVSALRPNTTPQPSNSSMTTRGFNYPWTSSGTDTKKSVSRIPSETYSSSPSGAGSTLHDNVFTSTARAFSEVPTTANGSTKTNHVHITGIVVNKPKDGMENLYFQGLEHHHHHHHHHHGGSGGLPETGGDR

T2: full-length isoform 2 ECD of cynomolgus monkey CD96 (His-tagged) (cynomolgus monkey)
T2 construct: also called His-tagged isoform 2 of cynomolgus monkey CD96; cyno CD96 extracellular domain isoform 2
T2 chain: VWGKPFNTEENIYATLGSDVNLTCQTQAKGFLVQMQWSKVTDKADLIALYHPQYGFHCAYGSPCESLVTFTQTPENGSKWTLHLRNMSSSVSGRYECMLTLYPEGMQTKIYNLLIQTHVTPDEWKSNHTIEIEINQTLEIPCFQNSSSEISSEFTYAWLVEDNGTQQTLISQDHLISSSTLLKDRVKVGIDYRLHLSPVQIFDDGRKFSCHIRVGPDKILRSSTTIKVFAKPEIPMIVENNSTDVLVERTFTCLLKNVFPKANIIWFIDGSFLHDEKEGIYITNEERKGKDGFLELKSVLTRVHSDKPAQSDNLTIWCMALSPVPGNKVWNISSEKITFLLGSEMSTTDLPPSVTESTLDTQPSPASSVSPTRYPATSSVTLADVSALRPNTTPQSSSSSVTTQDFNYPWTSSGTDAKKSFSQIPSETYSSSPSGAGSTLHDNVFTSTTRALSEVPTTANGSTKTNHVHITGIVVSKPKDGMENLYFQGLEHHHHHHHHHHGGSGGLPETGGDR

T3: wild type full-length human CD96 isoform 2 expressed on CHO cells (human, UniProt P40200-2 22-569)
T3 construct: whole, on cells; also called human CD96-CHO (isoform 2); human CD96 (iso2) CHO cells
T3 sequence (looked up): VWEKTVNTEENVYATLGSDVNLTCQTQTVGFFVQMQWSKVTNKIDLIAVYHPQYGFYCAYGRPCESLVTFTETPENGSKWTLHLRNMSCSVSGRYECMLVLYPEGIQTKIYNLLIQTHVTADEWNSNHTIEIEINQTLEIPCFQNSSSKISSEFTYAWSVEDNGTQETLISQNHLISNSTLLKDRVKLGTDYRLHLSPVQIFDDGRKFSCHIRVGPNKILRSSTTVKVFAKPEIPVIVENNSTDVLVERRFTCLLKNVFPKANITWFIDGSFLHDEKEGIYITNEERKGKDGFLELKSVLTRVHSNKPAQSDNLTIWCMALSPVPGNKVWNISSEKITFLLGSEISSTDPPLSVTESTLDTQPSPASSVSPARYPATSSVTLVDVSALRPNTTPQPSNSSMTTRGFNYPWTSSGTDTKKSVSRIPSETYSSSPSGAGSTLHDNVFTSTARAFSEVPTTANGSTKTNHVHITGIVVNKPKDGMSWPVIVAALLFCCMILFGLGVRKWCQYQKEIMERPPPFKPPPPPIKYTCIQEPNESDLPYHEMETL

T4: wild type full-length cynomolgus monkey CD96 isoform 2 expressed on CHO cells (cynomolgus monkey, UniProt A0A2K5TWV6 22-569)
T4 construct: whole, on cells; also called cynomolgus CD96-CHO cells; cynomolgus CD96-CHO (isoform 2)
T4 sequence: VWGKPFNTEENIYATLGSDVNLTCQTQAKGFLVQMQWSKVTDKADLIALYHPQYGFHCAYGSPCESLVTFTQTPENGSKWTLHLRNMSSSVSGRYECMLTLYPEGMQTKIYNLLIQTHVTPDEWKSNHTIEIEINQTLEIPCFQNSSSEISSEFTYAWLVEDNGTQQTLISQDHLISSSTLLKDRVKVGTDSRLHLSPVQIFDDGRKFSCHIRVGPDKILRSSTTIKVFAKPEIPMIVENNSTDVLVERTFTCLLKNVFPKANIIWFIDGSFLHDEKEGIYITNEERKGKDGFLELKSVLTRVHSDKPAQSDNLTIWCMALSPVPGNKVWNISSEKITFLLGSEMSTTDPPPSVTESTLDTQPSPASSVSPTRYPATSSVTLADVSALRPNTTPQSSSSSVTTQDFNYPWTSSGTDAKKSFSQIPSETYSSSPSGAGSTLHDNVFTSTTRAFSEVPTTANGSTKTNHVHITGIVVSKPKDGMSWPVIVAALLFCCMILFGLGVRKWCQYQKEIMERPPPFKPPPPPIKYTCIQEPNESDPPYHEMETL

B1: anti-CD96 monospecific antibody BA145 (antibody, human IgG1, kappa)
heavy: QVQLVQSGAEVKKPGASVKVSCKASGYTFTSYGISWVRQAPGQGLEWMGWISAYNANTNYAQKLQGRVTMTTDTSTSTAYMELRSLRSDDTAVYYCARSAGVLGGMDVWGRGTLVTVSSASTKGPSVFPLAPSSKSTSGGTAALGCLVKDYFPEPVTVSWNSGALTSGVHTFPAVLQSSGLYSLSSVVTVPSSSLGTQTYICNVNHKPSNTKVDKRV[in this place human IgG1 Fc]
light: EIVMTQSPATLSVSPGERATLSCRASQSVNAYLAWYQQKPGQAPRLLIYGASTRATGIPARFSGSGSGTEFTLTISSLQSEDFAVYYCQQYNNWPSFGQGTKLEIKRTVAAPSVFIFPPSDEQLKSGTASVVCLLNNFYPREAKVQWKVDNALQSGNSQESVTEQDSKDSTYSLSSTLTLSKADYEKHKVYACEVTHQGLSSPVTKSFNRGEC
B2: anti-CD96 monospecific antibody BA143 (antibody, human IgG1, kappa)
heavy: QVQLVQSGAEVKKPGASVKVSCKASGYTFTTYALHWVRQAPGQRLEWMGWINTGSGDTKYSQKFQGRVTITRDTSASTAYMELSSLRSEDTAVYYCARSLGVYYGMDVWGQGTLVTVSSASTKGPSVFPLAPSSKSTSGGTAALGCLVKDYFPEPVTVSWNSGALTSGVHTFPAVLQSSGLYSLSSVVTVPSSSLGTQTYICNVNHKPSNTKVDKRV[in this place human IgG1 Fc]
light: [in this place about 100 residues][in this place about 120 residues]

Columns and labels:
[1] = target: T1, full-length isoform 2 ECD of human CD96 …; assay: SPR Biacore T200, geomean of experiments #1 and #2
Method: (§1) Briefly, surface plasmon resonance experiments were performed using a Biacore T200 instrument, and the association rate (kₐ), dissociation rate (kd), and dissociation constant (KD) were calculated from each experiment using a 1:1 binding model with Biacore T200 Evaluation Software.
(§2) The sensor chip was regenerated between cycles with two 30-sec injections of 10 mM glycine, pH 1.5. Sensorgrams were evaluated and fit to a simple Langmuir 1:1 interaction model using the global data analysis option of BIAevaluation 3.0 software. Data quality was verified by visually inspecting deviations and curve fitting, and by evaluating the parameters of Rₘₐₓ, Chi2, and Tc.

[2] = target: T2, full-length isoform 2 ECD of cynomolgus …; assay: SPR Biacore T200, geomean of experiments #1 and #2
Method: as §1
(§3) The sensor chip was regenerated between cycles with two 30-sec injections of 10 mM glycine, pH 1.5. Sensorgrams were evaluated and fit to a simple Langmuir 1:1 interaction model using the global data analysis option of BIAevaluation 3.0 software.

[3] = target: T1, full-length isoform 2 ECD of human CD96 …; assay: SPR Biacore T200, Protein A capture, 1:1 model, experiment #1
Method: as §1, §2

[4] = target: T1, full-length isoform 2 ECD of human CD96 …; assay: SPR Biacore T200, Protein A capture, 1:1 model, experiment #2
Method: as §1, §2

[5] = target: T2, full-length isoform 2 ECD of cynomolgus …; assay: SPR Biacore T200, Protein A capture, 1:1 model, experiment #1
Method: as §1, §3

[6] = target: T2, full-length isoform 2 ECD of cynomolgus …; assay: SPR Biacore T200, Protein A capture, 1:1 model, experiment #2
Method: as §1, §3

[7] = target: T3, wild type full-length human CD96 …; assay: flow cytometry, human CD96 (isoform 2) CHO cells, geomean of 2 experiments
Method: (§4) Cells were centrifuged at 300 g for five minutes. The supernatant was discarded, and cells resuspended in FACS buffer were seeded in a 96-well U-bottom tissue culture plate at a density of 2×10⁵ cells per well in 50 μL. In a separate microplate, a 2× concentrated intermediate stock of each antibody was prepared. Antibodies were serially diluted 1-to-4 in FACS buffer. A total of 11 working dilutions ranging from 60 μg/mL to 0.000057 μg/mL were prepared. Fifty microlitres of each dilution were then transferred to the microplate containing human CD96-CHO cells. The cells were then incubated for 45 minutes at 4° C. […] After a 30-minute incubation on ice, the cells were washed twice with cold FACS Buffer, and the cells were analyzed by flow cytometry (BD LSR Fortessa Flow Cytometer). The data were analyzed using the FlowJo software by sequentially gating the FSC-A vs. SSC-A, and SSC-H vs. SSC-A. Mean fluorescence intensity (MFI) values for PE were calculated, and the data were plotted by GraphPad Prism software.

[8] = target: T4, wild type full-length cynomolgus monkey …; assay: flow cytometry, cynomolgus CD96 (isoform 2) CHO cells, geomean of 2 experiments
Method: as §4

[9] = target: T3, wild type full-length human CD96 …; assay: flow cytometry on CHO cells expressing human CD96 isoform 2, PE anti-human IgG Fc detection
Method: as §4

[10] = target: T3, wild type full-length human CD96 …; assay: flow cytometry, blocking of human CD155-Fc-PE binding to CHO cells expressing human CD96 isoform 2
Method: (§5) A 4× concentrated intermediate stock of each antibody was prepared in a microplate. Antibodies were serially diluted 1-to-4 in FACS buffer. […] After a 30-minute incubation on ice, the cells were washed twice with cold FACS Buffer, and the cells were analyzed by flow cytometry (BD LSR Fortessa Flow Cytometer). The data were analyzed using the FlowJo software by sequentially gating on the FSC-A vs. SSC-A and SSC-H vs. SSC-A. Mean fluorescence intensity (MFI) values for PE were calculated, and the data were plotted by GraphPad Prism software and analyzed as described above.

[11] = target: T3, wild type full-length human CD96 …; assay: flow cytometry, blocking of CD155-Fc-PE binding to human CD96 (isoform 2) CHO cells, geomean of 3 experiments
Method: as §5

[12] = target: T4, wild type full-length cynomolgus monkey …; assay: flow cytometry, blocking of CD155-Fc-PE binding to cynomolgus CD96 (isoform 2) CHO cells, geomean of 3 experiments
Method: IC50 values were calculated using GraphPad Prism software by curve fitting using a four-parameter logistic equation.

[13] = target: CD4+ T cells (CD3-stimulated; Day 4); assay: flow cytometry on activated primary human T cells, gated CD4+, donor 1; PE anti-human IgG detection
[14] = target: CD4+ T cells (CD3-stimulated; Day 4); assay: flow cytometry on activated primary human T cells, gated CD4+, donor 2; PE anti-human IgG detection
[15] = target: CD8+ T cells (CD3-stimulated; Day 4); assay: flow cytometry on activated primary human T cells, gated CD8+, donor 1; PE anti-human IgG detection

Binder | Kd [1] | Kd [3] | koff [3] | kon [3] | Kd [4] | koff [4] | kon [4] | EC50 [7] | IC50 (read off the curve) [10] | IC50 [11] | further results
B1 | 80 nM | 89.1 nM | 0.00105 s⁻¹ | 11800 M⁻¹ s⁻¹ | 71.8 nM | 0.000907 s⁻¹ | 12600 M⁻¹ s⁻¹ | 0.0267 µg/mL | ~0.5 µg/mL | 0.542 µg/mL | Kd [2]: 86.2 nM; Kd [5]: 92.3 nM; koff [5]: 0.00616 s⁻¹; kon [5]: 66800 M⁻¹ s⁻¹; Kd [6]: 80.5 nM; koff [6]: 0.00584 s⁻¹; kon [6]: 72600 M⁻¹ s⁻¹; EC50 [8]: 1.05 µg/mL; EC50 (read off the curve) [9]: ~0.04 µg/mL; IC50 [12]: 0.795 µg/mL
B2 | 13.3 nM | 13.3 nM | 0.000583 s⁻¹ | 44000 M⁻¹ s⁻¹ | 13.3 nM | 0.000572 s⁻¹ | 43100 M⁻¹ s⁻¹ | 0.0059 µg/mL | ~0.2 µg/mL | 0.152 µg/mL | EC50 (read off the curve) [13]: ~0.02 µg/mL; EC50 (read off the curve) [14]: ~0.006 µg/mL; EC50 (read off the curve) [15]: ~0.01 µg/mL
